The campaign covered roughly 310,000 compounds. About 14,000 (4.5%) showed an effect of 50% or more. The effect is printed as a negative number. This is one part of the list.
target: human ether-à-go-go-related gene (hERG) potassium channel (human, UniProt Q12809); test: primary screen, population patch clamp on CHO cells stably expressing hERG
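Note: peak tail current of the secondary pulse compared with the same well before compound.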

Sequence of human ether-à-go-go-related gene (hERG) potassium channel (Q12809 whole entry, looked up): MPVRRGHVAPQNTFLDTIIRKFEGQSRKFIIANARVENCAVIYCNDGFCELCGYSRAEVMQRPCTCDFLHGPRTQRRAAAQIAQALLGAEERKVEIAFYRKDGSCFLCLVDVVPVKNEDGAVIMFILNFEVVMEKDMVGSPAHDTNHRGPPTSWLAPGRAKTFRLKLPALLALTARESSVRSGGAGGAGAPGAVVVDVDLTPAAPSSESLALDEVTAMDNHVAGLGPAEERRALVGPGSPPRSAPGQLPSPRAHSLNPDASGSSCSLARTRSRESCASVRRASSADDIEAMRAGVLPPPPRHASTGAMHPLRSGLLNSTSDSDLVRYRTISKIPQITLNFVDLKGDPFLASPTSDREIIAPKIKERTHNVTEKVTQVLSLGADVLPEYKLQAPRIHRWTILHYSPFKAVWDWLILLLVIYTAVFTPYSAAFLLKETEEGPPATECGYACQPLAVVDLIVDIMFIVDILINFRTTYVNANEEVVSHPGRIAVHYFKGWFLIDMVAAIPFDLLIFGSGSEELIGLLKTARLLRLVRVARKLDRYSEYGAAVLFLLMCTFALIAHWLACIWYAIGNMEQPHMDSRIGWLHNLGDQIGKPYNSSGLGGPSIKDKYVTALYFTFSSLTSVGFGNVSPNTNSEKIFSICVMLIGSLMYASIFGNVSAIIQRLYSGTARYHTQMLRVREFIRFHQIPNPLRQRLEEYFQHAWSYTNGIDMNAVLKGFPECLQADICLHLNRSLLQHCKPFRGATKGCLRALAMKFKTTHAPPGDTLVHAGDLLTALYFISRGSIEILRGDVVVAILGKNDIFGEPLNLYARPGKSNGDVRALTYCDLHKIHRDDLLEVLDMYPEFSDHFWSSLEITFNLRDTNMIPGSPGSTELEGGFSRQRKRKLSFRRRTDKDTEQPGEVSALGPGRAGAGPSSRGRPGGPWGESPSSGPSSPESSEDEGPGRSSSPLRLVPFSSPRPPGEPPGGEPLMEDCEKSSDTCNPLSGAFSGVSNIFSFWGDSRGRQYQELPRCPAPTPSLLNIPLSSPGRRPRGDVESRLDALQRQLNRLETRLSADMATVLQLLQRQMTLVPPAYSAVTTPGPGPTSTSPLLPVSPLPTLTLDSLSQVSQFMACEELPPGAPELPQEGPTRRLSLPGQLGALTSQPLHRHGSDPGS

Row | Structure (SMILES) | hERG current change (%, negative = inhibition) at 10uM [%]
1 | Cc1onc(-c2ccccc2)c1-c1n[nH]c(=S)n1-c1ccc(C(=O)O)cc1 | 22.4
2 | O=C(Nc1cccnc1)c1ccc(COc2ccccc2Br)o1 | 20.1
3 | Cc1cccc(NC(=S)NCc2ccco2)n1 | -9.92
4 | CC(C)(CO)NCC(O)Cn1cc(C=O)c2ccccc21 (stereo not drawn) | 23.9
5 | Fc1ccc(F)c(CNc2ncnc3cc(Cl)ccc23)c1 | 19
6 | Cc1ccsc1C(=O)NNC(=O)C1CC=CCC1C(=O)O (stereo not drawn) | 5.83
7 | COc1cc2[nH]c(=S)n(NC(=O)CC(C)C)c(=O)c2cc1OC | 11.7
8 | Brc1ccc(-c2nn[nH]n2)cc1 | 11.2
9 | O=C(Nc1ccccc1)/C(=C\c1ccc2c(c1)OCO2)NC(=O)c1ccco1 | 4.18
10 | Cc1ccc(S(=O)(=O)CCC(=O)OCC(=O)NCC(=O)Nc2c(C)cc(C)cc2C)cc1 | -2.42
11 | Cc1ccc(S(=O)(=O)O/N=C2\CCCc3ccccc32)cc1 | 9.76
12 | O=C(NC(=S)N1CCN(c2ccc([N+](=O)[O-])cc2)CC1)c1ccc(F)cc1 | -58.5
13 | S=C(Nc1ccc(Cl)cc1)N1CCN(C2CCCCC2)CC1 | -10.4
14 | C=CCNC(=S)NCc1ccccc1 | 6.59
15 | CCOC(=O)NN1C(=O)c2ccccc2NC1C (stereo not drawn) | -5.76
16 | Cc1c(N=N/C(C(=O)Nc2ccccc2)=C(/O)c2ccccc2)c(=O)n(-c2ccccc2)n1C | 8.85
17 | CCOC(=O)N1CCC(NC(=O)c2ccc3c(c2)N(C)C(=O)/C(=C/c2cccc(OC)c2)S3)CC1 | 4.21
18 | Cn1c(-c2cccs2)[n+](C)c2ccccc21.[Cl-] | -25.3
19 | N=c1c2c(-c3ccccc3)c(-c3ccccc3)n(Cc3ccco3)c2ncn1Cc1ccco1 | -71.2

Row | Structure (SMILES) | hERG current change (%, negative = inhibition) at 10uM [%]
20 | O=C1c2ccccc2-c2nnc(-c3ccc(F)cc3)cc21 | 4.62
21 | O=c1[nH]cnc2c1c(-c1ccccc1)cn2-c1cccc(Cl)c1 | 7.63
22 | CCn1c(CN2CCN(c3ccc(OC)cc3)CC2)nc2cc(S(=O)(=O)N(C)C)ccc21 | 25.7
23 | COc1ccccc1C1CC(c2ccc(Cl)cc2Cl)Nc2nc(N)nn21 (stereo not drawn) | -44.7
24 | CC(C)(C)C1CCC(OC(=O)CCC(=O)Nc2ccccc2)CC1 (stereo not drawn) | 8
25 | CCN1CCN(C(CNS(=O)(=O)c2cccs2)c2cccnc2)CC1 (stereo not drawn) | -61.4
26 | COc1ccc2c(c1)C(C)=CC(C)(C)N2C(=O)CNCc1ccc2c(c1)OCO2.O=C(O)C(=O)O | -23
27 | CCn1cc(Br)c(C(=O)N(C)Cc2ccccc2)n1 | 6.42
28 | COC(=O)c1scc2c(Oc3ccccc3)cc(C(F)(F)F)nc12 | 8.62
29 | Cc1ccc(C2NCCS2)cc1 (stereo not drawn) | 14
30 | O=C1C/C(=C/NCc2ccccc2)C(=O)N1 | 9.47
31 | O=Cc1ccc(Oc2cnccn2)cc1 | 19.8
32 | C=CCNc1nc(C(=O)OCC(=O)Nc2c(Cl)cccc2C(F)(F)F)cs1 | 16
33 | O=C(c1cc(-c2ccc(F)cc2)on1)N1CCOCC1 | 3.48
34 | CC(C)C1Nc2ccc(C(=O)NCCCN3CCOCC3)cc2NC1=O (stereo not drawn) | 19.3
35 | COc1ccc(Cl)cc1NC(=O)CN(C)C(=O)c1ccc(N2CCCCCC2)c([N+](=O)[O-])c1 | 5.32
36 | Cc1cc2oc(=O)ccc2cc1[N+](=O)[O-] | 17.4
37 | COc1cc(OC)cc(C(=O)OCC(=O)Nc2ccc(F)cc2F)c1 | 4.34
38 | O=C(c1cc2ccccc2c(=O)o1)N1CCCc2ccccc21 | 10.4

Row | Structure (SMILES) | hERG current change (%, negative = inhibition) at 10uM [%]
39 | CCC(=O)N1c2ccc(S(=O)(=O)CCC(=O)Nc3ccc(OC)cc3OC)cc2CC1C (stereo not drawn) | 6.78
40 | Cc1cccc(C)c1NC(=O)CNC(=O)C12CC3CC(CC(O)(C3)C1)C2 | 21
41 | COc1cc(C(C(=O)NC2CCCC2)N(CCO)C(=O)Cn2nnc(-c3ccc(C)o3)n2)ccc1O (stereo not drawn) | 9.04
42 | COc1ccccc1/C=C/C(=O)c1ccc(NC(C)=O)cc1 | 0.555
43 | COc1ccccc1NC(=O)CSc1nnc(-c2ccncc2)o1 | 11.1
44 | CCOC(=O)Cn1c(COc2ccccc2OC)[n+](C)c2ccccc21 | 7.4
45 | CCN(c1ccc(NC(=O)COC(=O)c2ccc(C)s2)cc1)C(C)C | 10.5
46 | CCC(C)C(NC(=O)C1CCC(C)CC1)C(=O)NCc1ccccn1 (stereo not drawn) | -4.46
47 | O=C(NCC(=O)N(c1cccc(F)c1)C(C(=O)NC1CCCC1)c1ccco1)c1ccco1 (stereo not drawn) | 8.07
48 | COc1cc(C(=O)OCC(=O)N2c3ccccc3NC(=O)C2(C)C)ccc1OCC(C)C | 9.06
49 | O=C(Nc1cccc([N+](=O)[O-])c1)c1ccc2nc(N3C(=O)CCC3=O)sc2c1 | -20.1
50 | Cc1ccc(NS(=O)(=O)c2cc(C(=O)O)ccc2Cl)c(C)c1 | 3.51
51 | Cl.Nc1cc(Cl)ccc1N1CCCC1 | 8.82
52 | Cc1cc(N/C=C/C(=O)c2cccc3ccccc23)no1 | -2.81
53 | Cc1ccc(C(=O)Nc2cc([N+](=O)[O-])ccc2C)cc1 | -4.54
54 | CCC(C(=O)NC1CC1)n1nc(C)c2c(C)n(-c3ccc(C)cc3)nc2c1=O (stereo not drawn) | -62
55 | O=C(c1ccc2nc(-c3ccco3)c(-c3ccco3)nc2c1)N1CCC2(CC1)OCCO2 | -17.7
56 | COc1cccc(CNC(=O)CCCn2nc(C)c3c(C)n(-c4ccccc4)nc3c2=O)c1 | -10
57 | NS(=O)(=O)c1ccc(CCNC(=O)CN2CCN(Cc3cccc(C(F)(F)F)c3)CC2)cc1 | 14.9
